{"source": "PubChem BioAssay AID1477", "about": "(National Center for Advancing Translational Sciences (NCATS), 2009)", "note": "The whole screen tested about 230,000 compounds, of which fewer than 10 were called active. The inconclusive results got no clear call from the source; some entries with a clear call stand among them for comparison. Calls follow the shape of the dose curve; as a rule, active = well fitted curve in the direction sought with a large enough effect; inconclusive = small, poorly fitted or top-dose-only effect, or effect the other way, or another doubt; inactive = no such curve, though single readings can be large or run the other way. Potencies of inconclusive entries are left out as doubtful fits.", "data": [{"target": "Runt-related transcription factor 1 (Homo sapiens) + Core-binding factor subunit beta (Homo sapiens) (UniProt Q01196+Q13951)", "sequence (Q01196 whole entry, looked up)": "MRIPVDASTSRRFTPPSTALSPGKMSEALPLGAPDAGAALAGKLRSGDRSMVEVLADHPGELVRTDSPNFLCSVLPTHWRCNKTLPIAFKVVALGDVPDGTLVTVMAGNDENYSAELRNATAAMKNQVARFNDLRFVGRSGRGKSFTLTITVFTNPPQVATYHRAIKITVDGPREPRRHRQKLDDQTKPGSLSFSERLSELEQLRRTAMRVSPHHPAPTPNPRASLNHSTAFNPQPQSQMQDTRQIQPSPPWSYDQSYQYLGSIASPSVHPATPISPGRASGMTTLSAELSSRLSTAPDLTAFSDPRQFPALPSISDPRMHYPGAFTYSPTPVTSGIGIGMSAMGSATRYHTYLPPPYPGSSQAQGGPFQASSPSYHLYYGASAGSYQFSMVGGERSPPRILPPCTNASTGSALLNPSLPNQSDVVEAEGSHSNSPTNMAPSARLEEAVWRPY", "sequence (Q13951 whole entry, looked up)": "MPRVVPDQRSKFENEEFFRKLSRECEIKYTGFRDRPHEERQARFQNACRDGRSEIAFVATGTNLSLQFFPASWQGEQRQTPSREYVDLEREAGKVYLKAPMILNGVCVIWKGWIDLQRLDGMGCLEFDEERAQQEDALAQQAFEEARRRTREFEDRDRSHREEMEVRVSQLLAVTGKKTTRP", "experiment": "qHTS Assay for Compounds Blocking the Interaction Between CBF-beta and RUNX1 for the Treatment of Acute Myeloid Leukemia", "settings": "AlphaScreen CBFb-His/RUNX1-biotin binding, biochemical; series mostly up to 59.8 µM", "in_short": "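Interaction loss through any mechanism counts as activity. Pre-formed complex of His-CBF-beta and biotin-RUNX1 (30 nM apiece) is incubated with compound 15 min, then with 50 ng nickel and 50 ng streptavidin beads for 90 min before AlphaScreen detection.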", "values": [{"compound": "O=C(Nc1nccs1)c1c(O)c2c([nH]c1=O)CCCC2", "Potency": "inconclusive [activator, partial curve]"}, {"compound": "CCOC(=O)c1c(-n2c(C)cc(C=C3C(=O)NC(=S)NC3=O)c2C)sc2c1CCCC2", "Potency": "inactive"}, {"compound": "C/C(=C\\C(=O)c1ccccc1)Nc1ccc(O)cc1", "Potency": "inconclusive [inhibitor, single point]"}, {"compound": "CCn1c(SCC(=O)Nc2ccc(C(C)=O)cc2)nc2nc3c(cc2c1=O)COC(C)(C)C3", "Potency": "inactive"}, {"compound": "Cc1cc(N2CCOCC2)n2ncc(-c3ccccc3)c2n1", "Potency": "inconclusive [activator, partial curve]"}, {"compound": "O=S1(=O)N=C(N/N=C/c2ccc(Br)o2)c2ccccc21", "Potency": "inactive"}, {"compound": "CSCC[C@H](NC(=O)[C@H](CC(C)C)NC(=O)[C@H](CO)NC(=O)[C@H](CCC(=O)O)NC(=O)[C@H](CC(C)C)NC(=O)[C@H](Cc1ccc(O)cc1)NC(=O)[C@H](CCCCN)NC(=O)[C@H](CCCCN)NC(=O)[C@H](C)NC(=O)[C@H](CO)NC(=O)[C@H](CC(C)C)NC(=O)[C@H](CCC(N)=O)NC(=O)CNC(=O)[C@H](CC(C)C)NC(=O)[C@H](CC(C)C)NC(=O)[C@H](CCCCN)NC(=O)[C@H](CO)NC(=O)[C@H](Cc1ccccc1)NC(=O)[C@H](CC(=O)O)NC(=O)[C@H](CO)NC(=O)[C@@H](NC(=O)[C@H](Cc1ccccc1)NC(=O)[C@@H](NC(=O)CNC(=O)[C@H](CC(=O)O)NC(=O)[C@H](C)NC(=O)[C@@H](N)Cc1cnc[nH]1)C(C)C)[C@@H](C)O)C(N)=O", "Potency": "inactive"}, {"compound": "Cc1oc2c(c1C(=O)c1ccccc1)C(=O)C(=O)c1ccccc1-2", "Potency": "inconclusive [inhibitor, partial curve]"}, {"compound": "COc1ccc(CCn2c(C)cc(C(=O)CCl)c2C)cc1OC", "Potency": "inactive"}, {"compound": "Cc1cc(CNC(=O)c2cccc([N+](=O)[O-])c2)c2ccccc2n1", "Potency": "inconclusive [activator, single point]"}, {"compound": "CNC(=S)N(Cc1ccc2c(c1)OCO2)C1CC(=O)N(c2ccc(F)cc2)C1=O", "note": "(centres undefined)", "Potency": "inactive"}, {"compound": "O=C1C(=O)N(CC(=O)N2CCCC2)c2ccccc21", "Potency": "inactive"}, {"compound": "CC(C)C[C@H](NC(=O)[C@@H]1CCCN1C(=O)[C@H](Cc1ccccc1)NC(=O)[C@H](C)NC(=O)[C@H](CCC(=O)O)NC(=O)[C@H](C)NC(=O)[C@H](CO)NC(=O)[C@H](CCC(=O)O)NC(=O)[C@H](CC(=O)O)NC(=O)[C@H](CCC(=O)O)NC(=O)[C@H](C)NC(=O)CNC(=O)[C@H](CC(N)=O)NC(=O)[C@@H]1CCCN1C(=O)[C@H](Cc1ccc(O)cc1)NC(=O)[C@@H](NC(=O)[C@H](CCCCN)NC(=O)[C@@H](NC(=O)[C@@H]1CCCN1C(=O)[C@@H](N)CCCNC(=N)N)C(C)C)C(C)C)C(=O)N[C@@H](CCC(=O)O)C(=O)N[C@@H](Cc1ccccc1)C(=O)O", "Potency": "inactive"}, {"compound": "O=C(Nc1ccc(C2=NCCN2)cc1)c1ccc(C(=O)Nc2ccc(C3=NCCN3)cc2)c([N+](=O)[O-])c1", "Potency": "inactive"}, {"compound": "CCOc1ccccc1Cn1c(=O)oc2ccc(C)cc21", "Potency": "inactive"}, {"compound": "CCOC(=O)c1c(C)oc2ccc(OC(=O)c3cccs3)cc12", "Potency": "inconclusive [activator, single point]"}, {"compound": "Cc1nc(-c2ccc(Cl)cc2)sc1C1(C)CC(c2ccc(C#N)cc2)=NO1", "note": "(centres undefined)", "Potency": "inconclusive [activator, single point]"}, {"compound": "CCN(c1ccccc1)S(=O)(=O)c1cc(C(=O)OC(C)C(=O)Nc2ccc3c(c2)OCCO3)ccc1C", "note": "(centres undefined)", "Potency": "inconclusive [inhibitor, single point]"}, {"compound": "COC(=O)/C=C\\CCc1coc(/C=C\\CNC(=O)OC)n1", "Potency": "inconclusive [activator, single point]"}, {"compound": "CN1CCN(C2Cc3ccccc3Sc3ccc(Cl)cc32)CC1", "note": "(centres undefined)", "Potency": "inactive"}, {"compound": "CNc1ccccc1C(C)(C)c1cc(-c2ccco2)n[nH]1", "Potency": "inconclusive [inhibitor, single point]"}, {"compound": "COc1ccc(-c2nnc(SCc3cc(C)cc(C)c3)o2)cc1", "Potency": "inconclusive [activator, single point]"}, {"compound": "O=C(O)c1cccc(Cn2c(Cl)c(/C=N/NC(=O)c3cc4ccccc4cc3O)sc2=O)c1", "Potency": "inconclusive [inhibitor, single point]"}, {"compound": "CCOC(=O)c1csc(-c2ccc(OC)c(OC)c2)n1", "Potency": "inconclusive [activator, single point]"}, {"compound": "Clc1cccc(N=C2NN=C(c3ccc4c(c3)OCCO4)CS2)c1", "Potency": "inconclusive [inhibitor, partial curve]"}, {"compound": "COC(=O)c1ccc(C(NC(=O)OCc2ccccc2)/C(=C/[C@@H](C)C(=O)N[C@@H](CO)Cc2ccccc2)c2cccnc2)cc1", "note": "(some centres undefined)", "Potency": "inconclusive [activator, partial curve, poor fit]"}, {"compound": "O=c1c(/C=C(\\O)c2ccccc2)nc2ccccc2n1-c1ccccc1", "Potency": "inconclusive [activator, single point]"}, {"compound": "O=C1CC(c2ccc3c(c2)OCO3)c2cc(O)ccc2O1", "note": "(centres undefined)", "Potency": "inconclusive [inhibitor, single point]"}, {"compound": "O=C(CCNc1ccc(Cc2ccncc2)cc1)c1ccc([N+](=O)[O-])cc1", "Potency": "inconclusive [inhibitor, partial curve]"}, {"compound": "CCC(=O)c1ccccc1OCCCN1C(=O)NC(C)(C)C1=O", "Potency": "inactive"}, {"compound": "COc1ccc(NC(C)=O)cc1NC(=O)CSc1nnc(-c2cccnc2)n1C", "Potency": "inconclusive [inhibitor, single point]"}, {"compound": "COc1ccc(C2CC(c3ccccc3)Oc3cc(C)cc(C)c32)cc1", "note": "(centres undefined)", "Potency": "inconclusive [activator, partial curve]"}, {"compound": "Cc1ccc(NC(=O)C(NC2CCCc3ccccc32)c2ccccc2)c([N+](=O)[O-])c1", "note": "(centres undefined)", "Potency": "inconclusive [inhibitor, partial curve]"}, {"compound": "Oc1ccc(/C=N/Nc2nn3cnnc3c3ccccc23)cc1", "Potency": "inconclusive [activator, full curve]"}, {"compound": "O=C1CC(N2CCN(Cc3ccc4c(c3)OCO4)CC2)C(=O)N1CCc1ccccc1", "note": "(centres undefined)", "Potency": "inconclusive [inhibitor, single point]"}, {"compound": "CN(C)c1ccc(N=C/C=C2/N(C)c3ccccc3C2(C)C)cc1", "Potency": "inconclusive [inhibitor, partial curve]"}, {"compound": "O=C(/C=C/c1cccs1)c1ccc(Br)cc1", "Potency": "inactive"}, {"compound": "Cc1ccc(Cn2c(N)c(S(=O)(=O)c3cccs3)c3nc4ccccc4nc32)cc1", "Potency": "inconclusive [activator, partial curve]"}, {"compound": "CN(CC(CC(=O)Nc1nncs1)c1ccccc1)S(=O)(=O)c1ccc(Br)cc1", "note": "(centres undefined)", "Potency": "inactive"}, {"compound": "COc1ccc(/C=N/NC(=O)Nc2cccc3nsnc23)c(OC)c1", "Potency": "inconclusive [inhibitor, single point]"}, {"compound": "CC1(OC(=O)CCc2ccccc2)C(=O)C=C2C=C(c3ccc(C#N)cc3)N(Cc3ccco3)C=C2C1=O", "note": "(centres undefined)", "Potency": "inconclusive [inhibitor, single point]"}, {"compound": "O=C1[C@H]2[C@H]3[C@H](O)[C@H](O)C/C(=N/OCc4ccccc4)[C@H]3CC[C@@H]2C(=O)N1C[C@@H]1CCCO1", "Potency": "inconclusive [activator, full curve]"}, {"compound": "NS(=O)(=O)c1ccc(N=Nc2c[nH]c(=O)c(O)c2)cc1", "Potency": "inconclusive [inhibitor, single point]"}, {"compound": "NC(=O)C1CCN(C(=O)CSc2nc3c(c(-c4ccccc4)n2)CCCC3)CC1", "Potency": "inactive"}, {"compound": "Cc1ccccc1N1CCN(S(=O)(=O)C[C@]23CCC(CC2NC(=O)[C@@H](N)CCS(C)(=O)=O)C3(C)C)CC1", "note": "(some centres undefined)", "Potency": "inactive"}, {"compound": "CCc1ccc(NC(=S)NC2CC3CCCC(C2)N3Cc2cccs2)cc1", "note": "(centres undefined)", "Potency": "inactive"}, {"compound": "O=C(/C=C/c1ccco1)Nc1cccc(NC(=O)/C=C/c2ccco2)n1", "Potency": "inconclusive [inhibitor, single point]"}, {"compound": "Cc1cc(N/N=C/c2cccc(Br)c2)nc2ccccc12", "Potency": "inconclusive [activator, partial curve]"}, {"compound": "O=C(OCC#CCSc1nc2ccccc2o1)c1cc2ccccc2o1", "Potency": "inconclusive [activator, single point]"}, {"compound": "O=C1CN(CC(=O)N2CCOCC2)c2ccccc2O1", "Potency": "inconclusive [inhibitor, single point]"}, {"compound": "N#C/C(C(=O)Oc1ccccc1)=C1\\C=Cc2ccccc2N1", "Potency": "inconclusive [activator, full curve, poor fit]"}, {"compound": "N#Cc1ccccc1CN1C(=O)S/C(=C/c2cccn2-c2ccc(C(=O)O)cc2)C1=O", "Potency": "inconclusive [inhibitor, single point]"}, {"compound": "Cc1ccc(S(=O)(=O)N/N=C/c2ccc(OCC(=O)Nc3ccccc3Cl)cc2)cc1", "Potency": "inactive"}, {"compound": "CC(=O)Nc1ccc2c(c1)OCCOCCOc1cc(NC(C)=O)ccc1OCCO2", "Potency": "inconclusive [activator, single point]"}, {"compound": "O=C(Nc1ccc(Cl)cc1)c1csc(-c2ccccc2)n1", "Potency": "inactive"}, {"compound": "O=[N+]([O-])c1ccc2[nH]nc(-c3ccccc3)c2c1", "Potency": "inactive"}, {"compound": "CCOc1cc(/C=C2\\SC(=S)N(Nc3ccccc3)C2=O)ccc1O", "Potency": "inconclusive [inhibitor, single point]"}, {"compound": "Cc1ccc(-n2nc(-c3ccco3)cc2C(=O)O)c(C)c1", "Potency": "inconclusive [inhibitor, single point]"}, {"compound": "Oc1ccc(/C=N/n2c(-c3ccco3)csc2=Nc2cccnc2)c(O)c1", "Potency": "inconclusive [inhibitor, partial curve]"}]}]}
